The other results are listed elsewhere or left out. At the low end of the ranking, values are background and their order means little.
The sequences below were run against SIX1-Q177R homeodomain (UniProt Q15475) (assay: universal protein binding microarray). Conditions: Universal all-10-mer PBM (8x60K, AMADID 030236), 300 nM GST-tagged protein, Alexa Fluor 488 anti-GST; buffer, salt, pH and temperature not stated; high values mean tight binding; most listed sequences are background and not binding sites; double strand, one strand shown.

Row | Sequence | binding signal [E-score]
1 | GTTCCCTA | -0.0631
2 | GATTCGAC | -0.02
3 | AGTGGTGC | 0.245
4 | CCGCCGCC | 0.0455
5 | CGGTATCA | 0.312
6 | AGTTTTCG | -0.0943
7 | ACGCACGT | 0.0456
8 | ACAATGTG | -0.0929
9 | AAGATGAT | -0.121
10 | TAGCGGCA | -0.0473
11 | AACGGCGC | -0.226
12 | AACACTGC | 0.375
13 | GCGGTAAA | -0.108
14 | ACACATTC | 0.0929
15 | ATCAGCAC | -0.0632
16 | ACGGTAGC | -0.0864
17 | GTTTAAAA | -0.107
18 | ACTATGCC | 0.0123
19 | CGCTCAGC | 0.0793
20 | AATAGAAC | -0.0938
21 | ATGGGGGC | -0.111
22 | CTGTCAGC | -0.278
23 | ACGAAGCT | -0.135
24 | CGCTGTCC | -0.239
25 | CCTGAGTA | 0.0767

Row | Sequence | binding signal [E-score]
26 | ACTGAAAA | -0.124
27 | AGCGTAAA | -0.0617
28 | GGTTAACA | 0.224
29 | AAGGCCTT | -0.39
30 | CCCAGGGG | 0.0827
31 | CGACTCGC | 0.0879
32 | CCGTTGGA | -0.136
33 | GATGCTCA | -0.37
34 | ATAGAGAT | -0.292
35 | CCGGCGAC | 0.00878
36 | CGGGGGTC | 0.314
37 | CTTGTTGC | -0.197
38 | GAGTCGCC | 0.0779
39 | CCAATGCA | 0.0653
40 | CGGTTCGC | -0.207
41 | CATTAGCA | -0.0717
42 | ACTTGTTG | -0.209
43 | GATAATAC | 0.157
44 | GCGTCCCC | -0.0511
45 | TGGTTCAA | 0.0105
46 | GCAAGAAA | -0.124
47 | GATACACC | 0.469
48 | AGAGATGC | -0.0601
49 | CCGCTGTC | -0.215
50 | CTCTTTCC | -0.234

Row | Sequence | binding signal [E-score]
51 | ATACCTAC | 0.224
52 | GAGTTCAC | 0.0168
53 | CAAACTGC | -0.174
54 | CTGCAGCC | -0.0817
55 | CCTCTTTA | 0.171
56 | ACAACCCC | 0.207
57 | CAATCAGG | -0.14
58 | GGGATGAA | -0.0203
59 | CCGCCGAC | 0.249
60 | ATTAATCA | -0.077
61 | AGAGGAAG | -0.0801
62 | CGAAGCCC | -0.106
63 | ACCCAGTG | 0.21
64 | CTATTCGA | -0.189
65 | CCTGGCAC | 0.0725
66 | ACTGTTGG | -0.22
67 | GCGCGCCA | -0.198
68 | ATAATGGC | -0.00598
69 | CGCGGGAG | 0.132
70 | GAGTGGGC | -0.19
71 | ATGTCATC | -0.197
72 | AGCTTAAC | -0.0566
73 | ACGCGACG | 0.0991
74 | CTGTGTGA | 0.114
75 | ATCATACA | 0.147

Row | Sequence | binding signal [E-score]
76 | ATCTAAAC | -0.0978
77 | ATGCATAG | -0.0129
78 | AGGTCTCG | -0.0514
79 | CGAGCATC | -0.129
80 | GTCCATCA | -0.000235
81 | CACTCCTC | 0.201
82 | AGGATAGA | -0.0391
83 | ACCGGGGG | 0.238
84 | CTGAGTCA | 0.0349
85 | AGCTTCAT | -0.269
86 | CACACGCA | 0.32
87 | CATAGGAA | -0.0697
88 | AGTTATGC | -0.0843
89 | ACGGCTTA | -0.0699
90 | ACCCCTCG | 0.307
91 | GGGGCCGA | -0.175
92 | CTCGTTAA | -0.00649
93 | CAGCGGCG | -0.0815
94 | TCTCTTAA | -0.166
95 | TCTAGAAA | -0.0841
96 | ATTCGAGC | -0.149
97 | GGTGCTAC | 0.183
98 | CCGCAGCA | -0.0902
99 | GATCGGAA | -0.208
100 | ATCGAAAC | -0.0983

Row | Sequence | binding signal [E-score]
101 | AGACATAC | -0.171
102 | CCCCAAAG | 0.0256
103 | ACCGCATG | -0.119
104 | GTCCCCAA | -0.108
105 | AGGTTGAA | -0.0927
106 | GGTAGTTA | 0.0694
107 | GCTGGACA | -0.00889
108 | CCGTAATA | -0.0219
109 | CATAGCGG | -0.0787
110 | CTTCGCCC | -0.109
111 | GAGGGGCC | -0.0293
112 | AAAGCGTC | -0.0369
113 | AGGCCAGG | -0.157
114 | CATCTGGG | 0.0556
115 | AATATGCC | 0.0204
116 | CGATCAAG | 0.00342
117 | GCAGATGC | -0.119
118 | GCCCAGTA | 0.0291
119 | CCGCCGGA | 0.00758
120 | GGAGTGCA | 0.17
121 | CCTCGAGG | 0.0223
122 | AGAGCTGG | 0.0405
123 | ATAATGAG | -0.152
124 | CGAAACGA | -0.195
125 | TGTAAACA | 0.262

Row | Sequence | binding signal [E-score]
126 | GCATGGAC | -0.0266
127 | AAATCTAC | 0.0113
128 | CCTGACGC | 0.161
129 | GTGTGACA | 0.436
130 | AATTTGTG | 0.000525
131 | CAAGGGTA | 0.19
132 | GTGTGATA | 0.345
133 | TACAAACA | 0.111
134 | CCAGGTCG | 0.0732
135 | AGACTCTA | -0.324
136 | CAGCAAGA | -0.163
137 | ATGTGTTA | 0.109
138 | CCTTAGAG | -0.047
139 | ATCTGTCG | -0.0424
140 | TTATTGAA | -0.175
141 | CGGTAGCC | -0.00436
142 | CGTAGTTA | -0.0498
143 | TCCCGGAA | -0.0101
144 | AAGCATAA | -0.126
145 | GCTTGACC | -0.0802
146 | AACTGGGG | 0.0466
147 | CCAATGCC | -0.262
148 | GCAGCAGA | -0.153
149 | AAAAGGTG | 0.195
150 | ATACGCAT | -0.0256

Row | Sequence | binding signal [E-score]
151 | AGCGAAAG | -0.255
152 | ACTTGACG | 0.017
153 | CGGGCTCC | -0.093
154 | CCTTGCCG | -0.212
155 | GCGTGTCC | 0.412
156 | GGGAATAC | 0.0973
157 | GCATCGGA | -0.234
158 | CAAAGTGC | -0.135
159 | ACCATGTG | 0.125
160 | AGCTCTTA | -0.00688
161 | GGTATCAA | 0.325
162 | AGAAGATC | -0.244
163 | ATAACCAG | 0.00928
164 | ACTGAGGC | -0.241
165 | CCAATTGC | -0.257
166 | CTAGCAAG | -0.0881
167 | AGAGACTG | -0.137
168 | ACCCGGAA | 0.272
169 | TGATGCCA | 0.0543
170 | ACTGTAAT | 0.0173
171 | GGAATCAC | -0.00797
172 | GCGGAGTA | 0.241

Source: article PMC10668032
